Reference: PubChem BioAssay AID1645882 (National Center for Advancing Translational Sciences (NCATS), 2021)
In all, about 16,000 compounds went through this assay and about 120 (0.75%) were called active. Another 4% or so got no clear call; they are omitted. Calls come from the whole dose curve; as a rule, active = well fitted inhibition curve with a large enough effect; inconclusive = small, poorly fitted or top-dose-only effect; inactive = no such curve, though single readings can be large or run the other way. This is one part of the list.

Target: Rap guanine nucleotide exchange factor 3 (Homo sapiens) (UniProt O95398)
Experiment: Validation qHTS for antagonist of cAMP-regulated guanine nucleotide exchange factor 3 (EPAC1);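 note: plate controls were DMSO for no effect and ATA control for full effect; nearly all actives have a fitted effect of over 75% in size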
Settings: EPAC1 Rap1B-BODIPY-GDP exchange, fluorescence; activity change, negative = inhibition: at the top concentration
Method in brief: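 Nucleotide exchange followed as fluorescence loss when BODIPY-GDP leaves Rap1B (480 nm excitation, 540 nm emission), read at 5 min intervals over 30 min. Reaction: 100 nM EPAC1, 250 nM RAP1B-BODIPY-GDP, 50 uM GDP; ATA and DMSO define normalization.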

Chain of UniProt O95398 (O95398 whole entry, looked up): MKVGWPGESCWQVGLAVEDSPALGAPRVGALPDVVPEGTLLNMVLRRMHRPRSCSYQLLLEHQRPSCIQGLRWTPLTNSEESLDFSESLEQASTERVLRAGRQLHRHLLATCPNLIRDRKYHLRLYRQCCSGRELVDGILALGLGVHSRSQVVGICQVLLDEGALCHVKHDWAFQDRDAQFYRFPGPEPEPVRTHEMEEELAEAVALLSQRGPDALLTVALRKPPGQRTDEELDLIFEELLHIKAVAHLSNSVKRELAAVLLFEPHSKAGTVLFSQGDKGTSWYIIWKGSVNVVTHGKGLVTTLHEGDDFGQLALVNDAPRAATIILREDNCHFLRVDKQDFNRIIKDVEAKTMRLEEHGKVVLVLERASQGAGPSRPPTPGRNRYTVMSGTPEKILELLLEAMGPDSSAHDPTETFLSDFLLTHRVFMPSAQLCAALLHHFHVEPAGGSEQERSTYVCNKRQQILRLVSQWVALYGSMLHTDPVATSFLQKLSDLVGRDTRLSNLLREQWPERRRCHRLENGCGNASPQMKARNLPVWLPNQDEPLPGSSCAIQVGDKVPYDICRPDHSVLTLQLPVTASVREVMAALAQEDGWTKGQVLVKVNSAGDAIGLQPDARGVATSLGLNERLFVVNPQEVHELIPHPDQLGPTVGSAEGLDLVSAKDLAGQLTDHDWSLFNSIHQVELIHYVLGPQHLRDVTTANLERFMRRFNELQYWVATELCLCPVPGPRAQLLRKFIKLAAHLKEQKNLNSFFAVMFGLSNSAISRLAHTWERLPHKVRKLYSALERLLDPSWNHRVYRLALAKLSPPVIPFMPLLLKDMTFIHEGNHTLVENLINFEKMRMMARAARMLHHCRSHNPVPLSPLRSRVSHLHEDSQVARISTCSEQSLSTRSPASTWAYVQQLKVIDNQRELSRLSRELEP

SMILES | activity change, negative = inhibition
NC(CO)Cc1ccccc1 (stereo not given) | inactive: 8.96%
N#Cc1cccc(NC(=O)N2CC[C@@]3(CCCN(C(=O)Oc4ccccc4)C3)C2)c1 | inactive: 12.5%
CCN1C[C@]2(C)CC[C@H](OC)[C@]34C5C[C@@H]6CC[C@@](O)(C5C(=O)O6)C(C13)[C@@H](OC(=O)c1ccccc1)C24 | inactive: 16.6%
c1ccc(CN2CCNCC2)cc1 | inactive: 22.3% [at 606 µM]
CN1C(=O)CN=C(c2ccccc2)c2cc(Cl)ccc21 | inactive: 9.55%
CC(=O)[C@@]1(O)CC[C@H]2[C@@H]3CCC4=CC(=O)CC[C@]4(C)C3(F)[C@@H](O)C[C@@]21C (stereo not given in full) | inactive: 9.32%
Cc1cc([C@@H]2CCCN2C)on1 | inactive: -5.24% [at 75.8 µM]
C[C@]12CC[C@H](O)CC1=CC[C@@H]1[C@@H]2CC[C@]2(C)C(=O)CC[C@@H]12 | inactive: 19.4%
CC(Cc1ccccc1)NCc1ccccc1Cl (stereo not given) | inactive: 1.94%
Clc1ccc2c(c1)C(c1ccccc1)=NCc1nncn1-2 | inactive: 13.5%
CC(C)Nc1nc(Cl)nc(NC(C)C)n1 | inactive: 4.24%
c1ccc2c(c1)OCC(C1=NCCN1)O2 (stereo not given) | inactive
CC1OC(O[C@@H]2C(O)CC(O[C@@H]3C(O)C[C@@H](OC4CC[C@]5(C)[C@H](CC[C@H]6[C@@H]5CC[C@]5(C)C(C7=CC(=O)OC7)C(O)C[C@@]65O)C4)OC3C)OC2C)CC(O)C1O (stereo not given in full) | inactive: 18.1%
Nc1ccc([N+](=O)[O-])cc1 | inactive: 32.1% [at 320 µM]
O=S1OCC2C(CO1)C1(Cl)C(Cl)=C(Cl)C2(Cl)C1(Cl)Cl (stereo not given) | inactive: 17.1%
CCCCSP(=O)(SCCCC)SCCCC | inactive: 17%
CC(C)C(O)(C(=O)OC[C@@H]1CC[N+]2([O-])CCCC12)C(C)O (stereo not given in full) | inactive: 21.9%
N#Cc1c(Cl)c(Cl)c(Cl)c(C#N)c1Cl | inactive: -17.2%
CCCN(CCC)[C@H]1CCc2c(F)ccc(O)c2C1 | inactive: -6.4% [at 75.8 µM]
CC1C(=O)OC2C(O)C34C5OC(=O)[C@@]3(OC3OC(=O)[C@H](O)[C@]34C(C(C)(C)C)C5O)[C@]12O (stereo not given in full) | inactive: 3.75%
CCCC[N+]1(C)C2CC(OC(=O)[C@H](CO)c3ccccc3)CC1C1OC12 (stereo not given in full) | inactive: 7.17% [at 75.8 µM]
c1ccc(C2CNCc3ccccc32)cc1 (stereo not given) | inactive: -8.5%
CC(N)[C@@H](O)c1ccccc1 (stereo not given in full) | inactive: 22%
Cc1nnc2n1-c1sc(CCC(=O)N3CCOCC3)cc1C(c1ccccc1Cl)=NC2 | inactive

SMILES | activity change, negative = inhibition
Oc1cc(Cl)c(Cl)cc1Cl | inactive: 10.6%
CN(C)CCc1c[nH]c2ccccc12 | inactive: 9.27% [at 606 µM]
C/C=C(/C)C(=O)O[C@H]1C(C)=C2[C@H]([C@@H]1OC(=O)CCCCCCC)[C@@](C)(OC(C)=O)C[C@H](OC(=O)CCC)[C@@]1(O)[C@H]2OC(=O)[C@@]1(C)O | inactive: 11.5%
CC[N+]1(C)CCCC(OC(=O)C(O)(c2ccccc2)c2ccccc2)C1 (stereo not given) | inactive: 12.8%
Cc1o[nH]c(=O)c1C[C@H](N)C(=O)O | inactive
Clc1ccc(C2=CCC[C@H]3CC[C@@H]2N3)cn1 | inactive: -6.37%
Oc1ccc2c3c1O[C@H]1c4[nH]c5ccccc5c4C[C@]4(O)[C@H](C2)N(CC2CC2)CC[C@@]314 | inactive: 7.03%
c1ccc2cc(CC3=NCCN3)ccc2c1 | inactive: 4.07% [at 75.8 µM]
COP(=S)(OC)Oc1ccc(Sc2ccc(OP(=S)(OC)OC)cc2)cc1 | inactive: 10.3%
CCCCCCC(=O)CCCCCC/C=C/C[C@@H](O)[C@H](O)[C@@](N)(CO)C(=O)O | inactive
CCC(C)C(=O)OC1C(O)C2C(CN3CC(C)CCC3[C@]2(C)O)C2C[C@]34O[C@@]5(O)C(OC(=O)C(C)(O)C(C)O)CCC3(C)C5C(OC(C)=O)C(OC(C)=O)C4[C@@]21O (stereo not given in full) | inactive: 16.7%
c1ccc(N2CC3(CCNCC3)C2)cc1 | inactive: 8.68%
CCOP(=S)(OCC)Oc1nc(Cl)c(Cl)cc1Cl | inactive: 12.9%
C=C1C2CC[C@@]3(C)C(c4ccoc4)OC(=O)C[C@@]13OC1CC(=O)C(C)(C)C(C(OC(C)=O)C(=O)OC)[C@@]12C (stereo not given in full) | inactive: -7.61%
CN(C(=O)Cc1ccccc1)[C@H](CN1CCCC1)c1ccccc1 | inactive
CCCN1CCO[C@@H]2c3cc(O)ccc3OC[C@H]21 | inactive
C=C1C/C(=C/C)C(=O)O[C@@H]2CCN3CC=C(COC(=O)[C@]1(C)O)[C@@H]23 | inactive: 17.1%
COc1ccc2c(c1OC)C(=O)O[C@H]2[C@@H]1c2cc3c(cc2CCN1C)OCO3 | inactive
CC1(C)CC/C(=C/c2ccc(Cl)cc2)C1(O)Cn1cncn1 (stereo not given) | inactive: 20.9% [at 320 µM]
COC(=O)c1cc2c(cn1)[nH]c1ccccc12 | inactive: 12.2%
CC(C)(C)NC[C@@H](O)COc1cccc2[nH]c(C#N)cc12 | inactive: 12.4%
CN[C@H]1C[C@@H](N)[C@H](O)[C@@H](O[C@@H]2O[C@H](CO)[C@H](O)[C@@H]3OC4(O[C@H]23)O[C@H](C(N)CO)[C@H](O)[C@H](O)[C@H]4O)[C@@H]1O (stereo not given in full) | inactive
COc1ccc(CCN)cc1O | inactive: 11.7%
CN[C@@]1(c2ccccc2Cl)CCCCC1=O | inactive: 16.2%

SMILES | activity change, negative = inhibition
O=C(O)[C@@H]1CCN1 | inactive: -6.87% [at 75.8 µM]
O=C(NC(O)C(Cl)(Cl)Cl)NC(O)C(Cl)(Cl)Cl (stereo not given) | inactive: 6.96%
C[C@](N)(CCP(=O)(O)O)C(=O)O | inactive: -6.44%
CC(N)C(O)c1ccc(O)c(O)c1 (stereo not given) | inactive
CC(=O)NC1CCSC1=O (stereo not given) | inactive
CCN(CC)CCN1C(=O)CN=C(c2ccccc2F)c2cc(Cl)ccc21 | inactive: 5.72%
C[C@]12CCC3C(CC[C@H]4C[C@@H](O)CC[C@]34C)[C@@H]1CCC2=O (stereo not given in full) | inactive: 16.7%
Oc1ccccc1-c1ccccc1 | inactive: 8.5%
O=CN1CC2CC(C1)c1cccc(=O)n1C2 (stereo not given) | inactive: 18.2%
CNC(=O)Oc1ccccc1OC(C)C | inactive: 20.5%
CC(=O)O[C@@H]1CN2CCC1CC2 | inactive: 13%
CN1C2CCC1CC(OC(=O)c1cc(Cl)cc(Cl)c1)C2 (stereo not given) | inactive: 0.203% [at 75.8 µM]
O=C(O)Cc1cnc[nH]1 | inactive
c1ccc(N2CC[C@@]3(CCCNC3)C2)nc1 | inactive: 11.7%
CCCN[C@@H]1CCc2c(OC)cccc2[C@@H]1C | inactive
c1ccc2c(c1)sc1ccccc12 | inactive: 13%
O=P1(N(CCCl)CCCl)NCCCO1 (stereo not given) | inactive
CNc1ccc2oc(C[C@@H]3OC4(CC[C@@H]3C)O[C@H]([C@@H](C)C(=O)c3ccc[nH]3)[C@H](C)C[C@H]4C)nc2c1C(=O)O (stereo not given in full) | inactive: 2.4%
CCCn1c(C)c(C(=O)c2cccc3ccccc23)c2ccccc21 | inactive: -4.25%
NC(=O)CS(=O)C(c1ccccc1)c1ccccc1 (stereo not given) | inactive
CN1C(=O)CCS(=O)(=O)C1c1ccc(Cl)cc1 (stereo not given) | inactive
CN(C)[C@@H]1C(=O)C(C(N)=O)=C(O)[C@@]2(O)C(=O)C3=C(O)c4c(O)cccc4[C@@](C)(O)[C@H]3[C@H](O)[C@@H]12 | inactive
